pIC50: −log10 of the molar value. Values joined by “and” are separate entries in the source; they are usually repeats but may differ in a detail not shown here. Equal entries are not always repeated.
molecular target: T1, biotinylated truncated STAT6 (123-632)-avi (Homo sapiens, UniProt P42226); experiment: Homogenous Time-Resolved Fluorescence (HTRF) binding assay; settings: 0.15 nM biotinylated truncated STAT6 (123-632)-avi, 20 nM fluorescein-labeled probe, 30 minutes at room temperature
T1 sequence (P42226 123-632 limits assumed): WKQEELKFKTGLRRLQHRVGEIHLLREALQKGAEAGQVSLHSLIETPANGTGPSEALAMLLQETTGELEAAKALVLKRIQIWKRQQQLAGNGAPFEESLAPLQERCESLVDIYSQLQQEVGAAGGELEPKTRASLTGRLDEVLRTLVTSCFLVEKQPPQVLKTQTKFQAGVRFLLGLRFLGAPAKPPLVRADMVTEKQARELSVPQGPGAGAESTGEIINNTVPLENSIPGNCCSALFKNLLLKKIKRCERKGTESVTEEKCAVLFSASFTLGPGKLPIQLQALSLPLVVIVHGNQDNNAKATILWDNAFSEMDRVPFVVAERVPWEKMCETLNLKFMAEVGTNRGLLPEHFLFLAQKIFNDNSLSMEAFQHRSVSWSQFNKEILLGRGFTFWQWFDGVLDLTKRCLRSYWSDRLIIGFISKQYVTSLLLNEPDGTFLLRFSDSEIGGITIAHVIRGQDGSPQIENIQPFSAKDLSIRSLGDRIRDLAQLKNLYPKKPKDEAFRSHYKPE

Row | Compound | pIC50
1 | COC(=O)CC(=O)N1CCC=C(c2cc3cc(C(=O)N4Cc5cnn(C)c5C4)cc(-c4cccnc4OC)c3n2CC2CC2)C1 [Example I-795] | < 4.00
2 | CCc1cnccc1-c1cc(C(=O)N2CCN(c3ncc(F)cc3OC)CC2)cc2cc(C3=CCCN(C(=O)C(=O)O)C3)n(CC3CC3)c12 [Example I-796] | < 4.00
3 | CCc1ncccc1-c1cc(C(=O)N2CCN(c3ncc(F)cc3OC)CC2)cc2cc(C3=CCCN(C(=O)C(=O)O)C3)n(CC3CC3)c12 [Example I-797] | < 4.00
4 | CCc1ccc(-c2cc(C(=O)N3Cc4cnn(CC)c4C3)cc3cc(C4=CCCN(C(=O)C(=O)O)C4)n(CC4CC4)c23)c(C)n1 [Example I-798] | < 4.00
5 | CCOC(=O)C(=O)N1CCC=C(c2cc3cc(C(=O)N4Cc5cnn(CC)c5C4)cc(-c4ccc(CC)nc4C)c3n2CC2CC2)C1 [Example I-799] | < 4.00
6 | CCc1nc(C)ccc1-c1cc(C(=O)N2CCN(c3ncc(F)cc3OC)CC2)cc2cc(C3=CCCN(C(=O)CC(=O)O)C3)n(CC(C)C)c12 [Example I-800] | < 4.00
7 | CCc1ccc(-c2cc(C(=O)N3Cc4cnn(CC)c4C3)cc3cc(C4=CCCN(C(=O)CC(=O)O)C4)n(CC(C)C)c23)c(C)n1 [Example I-801] | < 4.00
8 | COC(=O)CCC#Cc1cccc2c1CC(C(=O)N1CCC=C(c3ccc4oc(C(=O)N(C)C)cc4c3)C1)N(C=O)C2 (centres unmarked) [Example I-802, Methyl 5-(3-(5-(2-(dimethylcarbamoyl)benzofuran-5-yl)-1,2,3,6-tetrahydropyridine-1-carbonyl)-2-formyl-1,2,3,4-tetrahydroisoquinolin-5-yl)pent-4-ynoate] | 6.00 to 7.00
9 | COc1ccccc1-c1cc(C2=CCCN(C(=O)C3Cc4ccccc4CN3C=O)C2)cc2cc(C(=O)N(C)C)oc12 (centres unmarked) [Example I-803, 5-(1-(2-formyl-1,2,3,4-tetrahydroisoquinoline-3-carbonyl)-1,2,5,6-tetrahydropyridin-3-yl)-7-(2-methoxyphenyl)-N,N-dimethylbenzofuran-2-carboxamide] | 4.00 to 5.00
10 | COc1cccnc1N1CCN(C(=O)c2cc3c(-n4ccccc4=O)cc(C4=CCCN(C(=O)CCn5ccnn5)C4)c(F)c3[nH]2)CC1 [Example I-807, 1-(6-(1-(3-(1H-1,2,3-triazol-1-yl)propanoyl)-1,2,5,6-tetrahydropyridin-3-yl)-7-fluoro-2-(4-(3-methoxypyridin-2-yl)piperazine-1-carbonyl)-1H-indol-4-yl)pyridin-2(1H)-one] | > 7.00
11 | CCc1cc(C)ncc1-c1cc(C2=CCCN(C(=O)C(C)C(=O)O)C2)c(F)c2[nH]c(C(=O)N3CCN(c4ncc(F)cc4OC)CC3)cc12 (centres unmarked) [Example I-808, 3-(3-(4-(4-ethyl-6-methylpyridin-3-yl)-7-fluoro-2-(4-(5-fluoro-3-methoxypyridin-2-yl)piperazine-1-carbonyl)-1H-indol-6-yl)-5,6-dihydropyridin-1(2H)-yl)-2-methyl-3-oxopropanoic acid] | > 7.00 and 6.00 to 7.00
12 | CN(C)C(=O)c1cc2cc(C3=CCCN(C(=O)CCc4nccs4)C3)ccc2o1 [Example I-815] | 6.00 to 7.00
13 | CN(C)C(=O)c1cc2ccc(C3=CCCN(C(=O)CCc4nccs4)C3)cc2[nH]1 [Example I-821] | 6.00 to 7.00
14 | CN(C)C(=O)c1cc2ccc(C3=CCCN(C(=O)CCn4cccn4)C3)cc2[nH]1 [Example I-826] | 6.00 to 7.00
15 | CN(C)C(=O)c1cc2ccc(C3=CCCN(C(=O)CCc4nncs4)C3)cc2[nH]1 [Example I-828] | 6.00 to 7.00
16 | CN(C)C(=O)c1cc2ccc(C3=CCCN(C(=O)CCc4ccno4)C3)cc2[nH]1 [Example I-829] | 6.00 to 7.00
17 | CN(C)C(=O)c1cc2cc([C@H]3CCCN(C(=O)CCn4ccnn4)C3)ccc2o1 [Example I-830] | 6.00 to 7.00
18 | CN(C)C(=O)c1cc2cc(C3=CCCN(C(=O)C(Cn4ccnn4)c4cccc(CO)c4)C3)ccc2o1 (centres unmarked) [Example I-832] | 5.00 to 6.00
19 | CN(C)C(=O)c1cc2cc(C3=CCCN(C(=O)C(Cn4ccnn4)c4cccc(CO)c4)C3)ccc2o1 (centres unmarked) [Example I-833] | 6.00 to 7.00
20 | C[C@@H](C(=O)N1CCC=C(c2ccc3cc(C(=O)N(C)C)[nH]c3c2)C1)n1ccccc1=O [Example I-834] | 6.00 to 7.00
21 | CN(C)C(=O)c1cc2cc(C3=CCCN(C(=O)C(Cn4ccnn4)c4cccc(C#N)c4)C3)ccc2o1 (centres unmarked) [Example I-835] | 6.00 to 7.00
22 | COc1ccccc1-c1cc(C2=CCCN(C(=O)C(C)C)C2)c(F)c2[nH]c(C(=O)N(C)C)cc12 [Example I-837] | 6.00 to 7.00
23 | COc1ccccc1-c1cc(C2=CCCN(C(=O)C3Cc4ccccc4CN3C=O)C2)cc2cc(C(=O)N(C)C)oc12 (centres unmarked) [Example I-838] | > 7.00
24 | COc1ccccc1-c1cc(C2=CCCN(C(=O)[C@H]3Cc4ccccc4CN3C=O)C2)cc2cc(C(=O)N(C)C)oc12 [Example I-839] | > 7.00
25 | CN(C)C(=O)c1cc2c(C3CCCCC3)cc([C@H]3CCCN(C(=O)CCn4cccn4)C3)c(F)c2[nH]1 [Example I-840] | > 7.00
26 | COc1ccccc1-c1cc(C2=CCCN(C(=O)CCn3ccnn3)C2)c(F)c2[nH]c(C(=O)N3CCN(C)CC3)cc12 [Example I-841] | > 7.00
27 | COc1ccccc1-c1cc(C2=CCCN(C(=O)CCn3ccnn3)C2)c(F)c2[nH]c(C(=O)N3CCCC3)cc12 [Example I-842] | > 7.00

Row | Compound | pIC50
28 | COc1ccccc1-c1cc(C2=CCCN(C(=O)CCn3ccnn3)C2)c(F)c2[nH]c(C(=O)N3CCN(CCCF)CC3)cc12 [Example I-843] | > 7.00
29 | CN(C)CCN(C)C(=O)c1cc2cc(C3=CCCN(C(=O)CCn4ccnn4)C3)ccc2o1 [Example I-844] | 6.00 to 7.00
30 | CN(C)C(=O)c1cc2cc(C3=CCCN(C(=O)CCn4ccnn4)C3)cc(-c3cccc4c3CN(C)C4=O)c2o1 [Example I-845] | > 7.00
31 | COc1ccccc1-c1cc(C2=CCCN(C(=O)CCn3ccnn3)C2)c(F)c2[nH]c(C(=O)N3CCc4cccnc43)cc12 [Example I-848] | > 7.00
32 | COc1ccccc1-c1cc(C2=CCCN(C(=O)CCn3ccnn3)C2)c(F)c2[nH]c(C(=O)N3CCC(Nc4ncccn4)CC3)cc12 [Example I-849] | > 7.00
33 | COc1ccccc1-c1cc(C2=CCCN(C(=O)CCn3ccnn3)C2)c(F)c2[nH]c(C(=O)N3CCCN(c4ccc(F)cn4)CC3)cc12 [Example I-850] | > 7.00
34 | COc1ccccc1-c1cc(C2=CCCN(C(=O)CCn3ccnn3)C2)c(F)c2[nH]c(C(=O)N3CCc4n[nH]cc4C3)cc12 [Example I-851] | > 7.00
35 | COc1ccccc1-c1cc(C2=CCCN(C(=O)CCn3ccnn3)C2)c(F)c2[nH]c(C(=O)N3CCN(Cc4ccc(Br)cc4)CC3)cc12 [Example I-852] | 6.00 to 7.00
36 | Cc1ccc(-c2cc(C3=CCCN(C(=O)CCn4ccnn4)C3)cc3cc(C(=O)N(C)C)oc23)c(O)c1 [Example I-853] | > 7.00
37 | COc1ccc(-c2cc(C3=CCCN(C(=O)CCn4ccnn4)C3)cc3cc(C(=O)N(C)C)oc23)c(C#N)c1 [Example I-854] | > 7.00
38 | CN(C)C(=O)c1cc2cc(C3=CCCN(C(=O)CCn4ccnn4)C3)cc(-c3cc(C(F)(F)F)nn3C)c2o1 [Example I-855] | > 7.00
39 | Cc1cc(C)c(-c2cc(C3=CCCN(C(=O)CCn4ccnn4)C3)cc3cc(C(=O)N(C)C)oc23)cc1C [Example I-856] | > 7.00
40 | COc1ccccc1-c1cc(C2=CCCN(C(=O)CCn3ccnn3)C2)c(F)c2[nH]c(C(=O)N3CCN(Cc4ccncc4)CC3)cc12 [Example I-858] | > 7.00
41 | COc1ccccc1-c1cc(C2=CCCN(C(=O)CCn3ccnn3)C2)c(F)c2[nH]c(C(=O)N3CCN(c4ccc5n[nH]cc5c4)CC3)cc12 [Example I-859] | > 7.00
42 | COc1ccccc1-c1cc(C2=CCCN(C(=O)CCn3ccnn3)C2)c(F)c2[nH]c(C(=O)N3CCN(c4ccc(C)cc4)CC3)cc12 [Example I-860] | 6.00 to 7.00
43 | COc1ccccc1-c1cc(C2=CCCN(C(=O)CCn3ccnn3)C2)c(F)c2[nH]c(C(=O)N3CCN(c4ccccn4)CC3)cc12 [Example I-862] | > 7.00
44 | COc1ccccc1-c1cc(C2=CCCN(C(=O)CCn3ccnn3)C2)c(F)c2[nH]c(C(=O)N3CCN(c4ncccn4)CC3)cc12 [Example I-863] | > 7.00
45 | COc1ccccc1-c1cc(C2=CCCN(C(=O)CCn3ccnn3)C2)c(F)c2[nH]c(C(=O)N3CCN(C(=O)N(C)C)CC3)cc12 [Example I-866] | > 7.00
46 | COc1ccccc1-c1cc(C2=CCCN(C(=O)CCn3ccnn3)C2)c(F)c2[nH]c(C(=O)N3CCN(c4ccc(O)cc4)CC3)cc12 [Example I-867] | > 7.00
47 | COc1ccccc1-c1cc(C2=CCCN(C(=O)CCn3ccnn3)C2)c(F)c2[nH]c(C(=O)N3CCN(Cc4ccc(Cl)cc4)CC3)cc12 [Example I-868] | 6.00 to 7.00
48 | CN(C)C(=O)c1cc2cc(C3=CCCN(C(=O)CCn4ccnn4)C3)cc(-c3ccc4c(c3)NC(=O)C4)c2o1 [Example I-869] | > 7.00
49 | CN(C)C(=O)c1cc2cc(C3=CCCN(C(=O)CCn4ccnn4)C3)cc(NCc3cccc4ncccc34)c2o1 [Example I-871] | > 7.00
50 | CN(C)C(=O)c1cc2cc(C3=CCCN(C(=O)CCn4ccnn4)C3)cc(NCc3ccc(F)cc3)c2o1 [Example I-872] | 6.00 to 7.00
51 | CN(C)C(=O)c1cc2cc(C3=CCCN(C(=O)CCn4ccnn4)C3)cc(NC3CCCC3)c2o1 [Example I-874] | 6.00 to 7.00
52 | COc1ccccc1-c1cc(C2=CCCN(C(=O)CCn3ccnn3)C2)c(F)c2[nH]c(C(=O)N3CCN(c4cc(C#N)ccn4)CC3)cc12 [Example I-875] | > 7.00
53 | CN(C)C(=O)c1cc2cc(C3=CCCN(C(=O)CCn4ccnn4)C3)cc(NCc3ccc(C(F)(F)F)cc3)c2o1 [Example I-877] | 6.00 to 7.00

— patent US20250214977A1, “STAT6 INHIBITORS AND USES THEREOF” (Kymera Therapeutics, Inc., priority 2024, published 2025)
